172 sequences from publication PMC5836133 can be followed below.

The list shows a part of the results. At the low end of the ranking, values are background and their order means little.

The experiment relates to T1, GST-NbGlk1(82-244).
T1 sequence: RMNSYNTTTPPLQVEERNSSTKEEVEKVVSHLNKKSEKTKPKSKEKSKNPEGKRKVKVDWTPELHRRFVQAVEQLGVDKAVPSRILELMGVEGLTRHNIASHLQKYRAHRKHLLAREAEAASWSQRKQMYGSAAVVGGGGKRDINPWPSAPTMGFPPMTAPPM
Put plainly: protein-binding microarray.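 Further: rank-based score ranging −0.5 to +0.5 with E above 0.45 taken as significant binding.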 To be noted: NbGlk1 is a Golden2-like transcription factor of Nicotiana benthamiana; high values mean tight binding; most listed sequences are background and not binding sites; double strand, one strand shown.
As for AATGGTTC, the binding signal was -0.114 E-score.

Turning to ACATAAAG, the binding signal is -0.0579 E-score.

AAATTTAG gave a binding signal of 0.156 E-score.

As to ACAGGGCG, the binding signal was -0.109 E-score.

In turn, AGGCTCCC yielded a binding signal of -0.377 E-score.

As for AGAGGATA, the binding signal came to 0.25 E-score.

ACGGTCCC returned a binding signal of -0.203 E-score.

In the case of CAACGCAG, the binding signal was -0.114 E-score.

In turn, ACTGCTAG registered a binding signal of -0.144 E-score.

For AAATGTTG, the binding signal was determined as 0.0646 E-score.

In turn, ACTGCCAA showed a binding signal of -0.109 E-score.

Turning to AGTCATCA, the binding signal is -0.124 E-score.

On to ATCTCCAC, for which the binding signal amounted to 0.333 E-score.

Turning to AACCGAAT, the binding signal is 0.234 E-score.

Sequence ACGGCTGA gave a binding signal of -0.113 E-score.

Sequence AAACAAAC displayed a binding signal of -0.0556 E-score.

Regarding CAGACCAG, the binding signal was -0.215 E-score.

ATAGCGAT: the binding signal is 0.247 E-score.

In turn, AACAGAAC returned a binding signal of -0.131 E-score.

Turning to ACTGCAGG, the binding signal was -0.206 E-score.

CAACCCCG yielded a binding signal of -0.133 E-score.

In turn, ATAAGTGA showed a binding signal of -0.00284 E-score.

The sequence ATAAAAAG registered a binding signal of 0.0893 E-score.

The sequence AGACCGCC yielded a binding signal of -0.335 E-score.

AGAAATCC gave a binding signal of 0.464 E-score.

On to AATACTCC, for which the binding signal was 0.0475 E-score.

In turn, ATTAGATC registered a binding signal of 0.148 E-score.

AGCAGCTG came in with a binding signal of -0.208 E-score.

For the sequence AACAACAA, the binding signal amounted to 0.0309 E-score.

ATGCTATC came in with a binding signal of -0.0253 E-score.

On to AGTGAAGG, for which the binding signal was -0.287 E-score.

CAAGCGTA came in with a binding signal of -0.181 E-score.

As to ATCAACCA, the binding signal was 0.0452 E-score.

Turning to ATCACTGG, the binding signal came to 0.0924 E-score.

Consider CAATAGCA, for which the binding signal turned out to be 0.066 E-score.

In turn, AACCGTCG gave a binding signal of -0.0721 E-score.

In the case of ACCCCTCA, the binding signal is -0.119 E-score.

In turn, AATTCTCG registered a binding signal of 0.184 E-score.

Turning to ATCTGCCG, the binding signal came out at 0.186 E-score.

ATCGATCA displayed a binding signal of 0.171 E-score.

With AGTATAAC, the binding signal came to 0.146 E-score.

As to AGAACCAT, the binding signal is -0.166 E-score.

AGAGTAGA registered a binding signal of 0.0572 E-score.

With AAGCCGAG, the binding signal was -0.144 E-score.

For AAATGTAT, the binding signal turned out to be 0.00686 E-score.

Take AGCTATCG: the binding signal was -0.0577 E-score.

On to CAAAGGAC, for which the binding signal was 0.0477 E-score.

CAAGACGA gave a binding signal of 0.0676 E-score.

In turn, AGACAGGC returned a binding signal of -0.196 E-score.

As for AAACGTGA, the binding signal was found to be 0.0299 E-score.

Consider ATAGAACG, for which the binding signal was -0.0128 E-score.

CAATCCAG showed a binding signal of 0.291 E-score.

Take CACAGCAC: the binding signal is -0.0956 E-score.

In the case of ACAGAACC, the binding signal was -0.175 E-score.

AAGTGGGC came in with a binding signal of -0.197 E-score.

Take AGTGGTCA: the binding signal was -0.142 E-score.

Regarding AATAGTAC, the binding signal was -0.0706 E-score.

The sequence AAATGGGT returned a binding signal of -0.0459 E-score.

As for ATGCGTGC, the binding signal was -0.18 E-score.

In turn, ACGGGGCC returned a binding signal of -0.185 E-score.

Turning to ACCGTGAA, the binding signal is -0.0604 E-score.

Sequence ACTGCAAA registered a binding signal of 0.0844 E-score.

As for ACAGGACT, the binding signal is -0.224 E-score.

The sequence AACCGCTA showed a binding signal of -0.177 E-score.

The sequence AGGGACGA returned a binding signal of -0.105 E-score.

Turning to AAGAAGAA, the binding signal is -0.13 E-score.

ACACTGGT gave a binding signal of -0.207 E-score.

For the sequence AGTAATTG, the binding signal is 0.116 E-score.

In the case of ATGCTGGC, the binding signal was -0.117 E-score.

AACCCATA: the binding signal was -0.0349 E-score.

On to ACTACCCT, for which the binding signal was -0.146 E-score.

Sequence ATTAAACA yielded a binding signal of 0.0281 E-score.

ATTGTAAC returned a binding signal of 0.0822 E-score.

On to ACCGCGAG, for which the binding signal is -0.21 E-score.

AATAAATA displayed a binding signal of 0.209 E-score.

Sequence CACGACTA had a binding signal of -0.135 E-score.

CACTAGGC gave a binding signal of -0.172 E-score.

In turn, AGTCGCCC returned a binding signal of -0.324 E-score.

As for ACTGAAGC, the binding signal is -0.171 E-score.

With ACGGGTGG, the binding signal was -0.0302 E-score.

AGCGGAGG: the binding signal was -0.255 E-score.

With AACATTGG, the binding signal is -0.00303 E-score.

ACCGCCGT came in with a binding signal of -0.12 E-score.

Regarding ACTCCCAT, the binding signal is -0.00838 E-score.

AACTAGCT registered a binding signal of -0.161 E-score.

ATGTTCTC: the binding signal is -0.0444 E-score.

ATGAATCC gave a binding signal of 0.152 E-score.

As for ACGCCAGA, the binding signal is -0.0449 E-score.

In turn, AGGGCACT showed a binding signal of -0.226 E-score.

For AGTCTACA, the binding signal is -0.0279 E-score.

As for ATTAGCAG, the binding signal was found to be 0.065 E-score.

In the case of ATAGGTGA, the binding signal is -0.041 E-score.

In turn, AGTTCAAG gave a binding signal of 0.0311 E-score.

AGCAGTCG returned a binding signal of -0.264 E-score.

In turn, ATTTCGAA came in with a binding signal of 0.316 E-score.

As for CACACCGC, the binding signal was -0.182 E-score.

As to ACCACCTA, the binding signal was -0.144 E-score.

Turning to AACAAACG, the binding signal stood at 0.0695 E-score.

Sequence AACGCGGA had a binding signal of -0.000563 E-score.

Sequence ATCCAAGA gave a binding signal of 0.217 E-score.

Sequence ACTCTCAA yielded a binding signal of -0.184 E-score.

Regarding AGTGTGGC, the binding signal is -0.181 E-score.

For ATGCATCC, the binding signal is -0.171 E-score.

Regarding ACAGAAAC, the binding signal came to 0.0167 E-score.

Regarding CACTGTCC, the binding signal is -0.0677 E-score.

In turn, AGGTACAT yielded a binding signal of -0.0849 E-score.

AGAGCTGC had a binding signal of -0.132 E-score.

The sequence ACAGCATG showed a binding signal of -0.137 E-score.

AAAGTGAG gave a binding signal of -0.0345 E-score.

In turn, CAACTCGA had a binding signal of -0.0359 E-score.

Sequence AATCGCAC registered a binding signal of 0.296 E-score.

In turn, AATGACAT gave a binding signal of 0.031 E-score.

On to AAACTCAC, for which the binding signal was -0.141 E-score.

Consider ACGGTTGG, for which the binding signal is -0.00198 E-score.

AAGAGAAA registered a binding signal of 0.0302 E-score.

Take AAGAACTC: the binding signal was -0.0904 E-score.

AGAGTGAA showed a binding signal of -0.13 E-score.

For the sequence AAATCCTT, the binding signal came to 0.392 E-score.

In the case of AGCGCACG, the binding signal was -0.298 E-score.

For AAAGGACC, the binding signal was -0.129 E-score.

Regarding CAAAGCCC, the binding signal was -0.296 E-score.

For the sequence ACCACCTC, the binding signal is -0.245 E-score.

AACAGTGT displayed a binding signal of -0.0872 E-score.

Sequence AAAGAGAA gave a binding signal of 0.0595 E-score.

As to ACAATCGC, the binding signal was 0.195 E-score.

With AGATAAGC, the binding signal is 0.0217 E-score.

Take AGTTTACA: the binding signal is -0.0263 E-score.

Turning to ATTTTGCG, the binding signal came out at 0.293 E-score.

Regarding ACATCAGA, the binding signal was 0.0735 E-score.

With ACGCTCCT, the binding signal was -0.0521 E-score.

For ACCTTAAG, the binding signal is -0.102 E-score.

AGGGTTTG: the binding signal is -0.0538 E-score.

Take AGGCATGA: the binding signal was -0.215 E-score.

In turn, AAACTCAG displayed a binding signal of -0.0439 E-score.

As to ATTGGCCC, the binding signal is -0.18 E-score.

In turn, ACTCAGAC had a binding signal of -0.109 E-score.

As for AGGTTCCG, the binding signal was -0.269 E-score.

For the sequence ACTACACG, the binding signal was 0.0585 E-score.

ACCTAACA had a binding signal of -0.0737 E-score.

Take ACATTGGG: the binding signal is -0.107 E-score.

Sequence ACTTGTGG had a binding signal of -0.155 E-score.

As to CACACTGA, the binding signal stood at 0.0127 E-score.

In the case of AGGAACAC, the binding signal is -0.105 E-score.

Sequence ACCGAGGT registered a binding signal of -0.272 E-score.

In the case of CAAGGCCG, the binding signal is -0.253 E-score.

AGATGGGG had a binding signal of -0.229 E-score.

As for AAGTCTGA, the binding signal is -0.167 E-score.

AATTAACG registered a binding signal of -0.000446 E-score.

For the sequence CAGCGGTC, the binding signal was -0.282 E-score.

In the case of ATATTTAA, the binding signal is 0.248 E-score.

As for AGTTTCAA, the binding signal is 0.00983 E-score.

Turning to AAAAAACA, the binding signal worked out at 0.0544 E-score.

AAAGATGT yielded a binding signal of -0.0566 E-score.

Sequence AACCTATG had a binding signal of -0.0262 E-score.

With CACCATTA, the binding signal was found to be 0.00511 E-score.

Consider AGCGATTC, for which the binding signal worked out at 0.253 E-score.

In the case of AATAGGCG, the binding signal was -0.0906 E-score.

The sequence AAGTTCGC yielded a binding signal of -0.0624 E-score.

In turn, ACTGAGGG gave a binding signal of -0.137 E-score.

Regarding AGGGTGAG, the binding signal is -0.24 E-score.

For CACGGCAA, the binding signal came to 0.0434 E-score.

The sequence CAAGGTCC had a binding signal of -0.181 E-score.

In turn, CAGCCAGC gave a binding signal of -0.232 E-score.

Consider CAAGTGGC, for which the binding signal was -0.244 E-score.

With AGTACCGG, the binding signal is -0.236 E-score.

Sequence ATGAGCGA came in with a binding signal of -0.0109 E-score.

ATCATCTC returned a binding signal of 0.126 E-score.

On to AAAATCGG, for which the binding signal turned out to be 0.363 E-score.

In the case of AGGTGTTC, the binding signal was -0.0481 E-score.

For the sequence CAAGACAC, the binding signal was -0.211 E-score.

Consider ATTCCCAA, for which the binding signal came out at 0.344 E-score.

On to ATGGTGAA, for which the binding signal came to 0.0127 E-score.
